Laboratory results reported in the supplement of paper PMC3334620.
In all, about 33,000 sequences were measured (“E-score (-0.5 to 0.5)”: median about -0.016, highest 2% from about 0.31 on). The list shows a part of the results.

target: Cst6 (UniProt P40535); experiment: PBM E-score (8-mer binding enrichment) (E-score (-0.5 to 0.5)); higher = stronger / more preferred TF binding; most listed sequences are background and not binding sites; conditions: protein concentration: 200 nM; construct: GST-DNA-binding domain
How it was run: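 GST-tagged yeast TFs (full-length or DNA-binding domain) were made by PURExpress in vitro transcription/translation and applied at about 100-200 nM to universal all-10-mer Agilent arrays. The arrays were made double-stranded by primer extension, on fresh or once-stripped slides. Bound protein was detected with fluorescent anti-GST, and scans were normalised with masliner. Each ungapped eight-base word, pooled with its reverse complement, received an E-score (modified Wilcoxon-Mann-Whitney statistic) from the Universal PBM Analysis Suite.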

Point of comparison: CCCTTCCA, “PBM E-score” value -0.145. Against it:
- CAGGAAAC — higher, -0.0745
- AACTTACG — higher, 0.301
- TTAATCAA — higher, 0.146
- GTACTATA — higher, 0.0192
- CCGAGACC — the same, -0.145
- GGGAATAC — higher, 0.031
- GGATGCCA — lower, -0.201
- GGTCAGTA — higher, -0.128
- ACAGTCTA — higher, -0.119
- CCACTTGA — higher, 0.0541
- TAGCACTA — higher, -0.115
- GCTATTAC — higher, 0.244
- CTAAACAA — higher, 0.0809
- ATCCCCCG — lower, -0.244
- ACCAACCT — higher, -0.062
- CGAGGGGA — higher, -0.0983
- CGTTAATC — higher, 0.162
- AGGTAAAT — higher, 0.0678
- CGGGGCTC — lower, -0.307
- GGTGATAA — higher, 0.0659
- GGACTGAA — higher, -0.075
- CCAGTGTC — higher, -0.108
- AGCGGTTC — higher, -0.092
- ACACCTAA — higher, -0.00262
- ACGGAATG — higher, 0.0531
- CAGAAACA — higher, 0.215
- GCAAACTA — higher, 0.0687
- AATCCGAT — higher, 0.119
- ATCTCTGA — higher, 0.0114
- CCTAACCG — lower, -0.172
- CAAAACGG — higher, 0.131
- GCTCTTCC — higher, -0.101
- AAACCGAC — higher, 0.00998
- ACTTGAAG — higher, 0.124
- ATTCATCG — higher, 0.0577
- CGTGCCGC — higher, 0.171
- ACACTGAG — higher, 0.0124
- TCATAAAA — higher, 0.265
- CCGCGGGC — higher, 0.0112
- CTAAATGA — higher, 0.176
- AAGCCCTC — lower, -0.258
- AAAGTGGT — higher, 0.00383
- ACACATAC — higher, -0.0886
- ATCAAGCC — higher, 0.0709
- CTTCATCC — lower, -0.151
- AGAATCAT — higher, 0.122
- CTCGAGCA — higher, 0.0309
- CGGCCTTA — higher, 0.0171
- ACAAGTGC — higher, -0.0973
- AGCGATGC — lower, -0.21
- GCGTGGCC — lower, -0.226
- ATTGGTAA — higher, 0.0247
- ACAGATGA — higher, 0.199
- AACACCCT — lower, -0.205
- ACGGGGAA — higher, -0.0312
- AAACCAGA — higher, 0.152
- GGTTCGAA — higher, 0.135
- CAGTGAGG — higher, -0.106
- CCTCTCAA — lower, -0.193
- CCCCGCAA — higher, -0.00488
- CCACCTTC — lower, -0.313
- GAACCCTA — higher, 0.00298
- AGAGTTTC — higher, -0.127
- CAGGAGTA — higher, 0.00357
- CGGATTTC — higher, -0.077
- TCAGGGGA — lower, -0.149
- AAATCTCG — higher, 0.0859
- AGTCCCAT — lower, -0.201
- TCTGTCCA — higher, -0.0796
- ACGGACGT — higher, 0.0857
- CAATTGCA — higher, 0.068
- GATGAGCA — higher, 0.221
- AATAGAAA — higher, 0.188
- CACAAAGC — higher, 0.0263
- GTCCGCAC — higher, 0.107
- ATGTGCGC — higher, 0.0865
- CAGTGGAG — higher, 0.0339
- CGGCTTCA — higher, 0.17
- AGGCGTAG — lower, -0.168
- CGCTCGGC — higher, -0.0281
- CCCGACCA — higher, -0.14
- ACAAGCAG — lower, -0.195
- CACTTGCG — higher, -0.00981
- ACATATCC — higher, 0.0929
- GAGCCTCC — lower, -0.278
- TAGATGCA — higher, -0.0484
- ACTGTTCC — higher, -0.109
- AAGTCCCG — lower, -0.322
- AAATTGTC — higher, 0.189
- ACGAGAAA — higher, 0.134
- AGCTTTGC — lower, -0.207
- AAGTTAAT — higher, 0.213
- ACGTTACA — higher, 0.241
- AACAGCGG — higher, 0.00438
- TCTCGAAA — higher, -0.0502
- CGGGCTAG — lower, -0.282
- GGTGGAAC — lower, -0.217
- TGCGGAAA — higher, -0.0266
- CACTAGAG — higher, -0.0532
- AGTCGCGG — lower, -0.212
- TACATGCA — higher, 0.0997
- AACGAATC — higher, 0.227
- ACCGATCA — higher, 0.0358
- ACTTTGCA — higher, 0.0884
- CCGTGTTC — higher, 0.0724
- TACTCAAA — higher, 0.243
- CCAGCCTA — lower, -0.297
- ATTGGTAC — higher, -0.105
- ACCCAACT — higher, -0.0923
- AACCCCGC — higher, -0.107
- AATGCTCG — higher, 0.0362
- CAAAAACA — higher, 0.0377
- AATTGTTA — higher, 0.159
- CAATAAAC — higher, 0.062
- GATTGAAC — higher, 0.117
- ACGATATC — higher, 0.18
- CTGTCGCA — lower, -0.146
- ATAACGGC — higher, 0.147
- ATTGCTTA — higher, 0.0947
- ACCAGAAT — higher, 0.0698
- CATAAACG — higher, 0.196
- ACACATCG — higher, -0.0609
- GGCGTCAA — higher, 0.263
- ATTTTGTG — higher, 0.236
- ACCCGCAT — higher, 0.0703
- CCACAGCG — higher, -0.029
- GCCCGCCA — lower, -0.169
- CAGCTTAG — higher, -0.141
- ATTTGCAC — higher, 0.14
- ATACTCAC — higher, 0.0698
- CGTACATC — higher, -0.0558
- ATGAGGGG — lower, -0.208
- GAGTAAGC — lower, -0.189
- GATTAGAC — higher, -0.0447
- GCACATGC — higher, -0.0963
- GGTGCTAC — lower, -0.233
- CCGGATTA — higher, -0.0178
- AGCGGACC — lower, -0.184
- CCAACTGC — higher, -0.0842
- ACAGCGGA — higher, -0.12
- AAGCGGGA — lower, -0.174
- CACCGAGA — higher, -0.0382
- AACCGCAC — higher, -0.0597
- CTCTACAA — higher, 0.00585
- GGGTCAGA — lower, -0.219
- AGATACAA — higher, 0.284
- CACAATGG — higher, 0.15
- CATCATTA — higher, 0.327
- TTATATAA — higher, 0.24
- GAGCATGC — higher, -0.142
- AGCGGCGG — higher, 0.177
- AGCATATA — higher, 0.0146
- CGCCCCAG — higher, -0.111
- CCTTGATC — higher, -0.0447
- ACATGAAG — higher, -0.00917
- ACAAGAAC — higher, 0.243
- CCGCCATC — lower, -0.263
- TATCTACA — higher, 0.151
- GAGGTAAC — higher, 0.0786
- ACGGGGCT — lower, -0.299
- CTAATCAG — higher, 0.00595
- GTTGATTA — higher, 0.219
- CAGCACAA — higher, 0.178
- AAGCCAGC — higher, -0.0119
- CTTCTATC — lower, -0.203
- CCGGCCTA — higher, -0.0867
- CAACCCTA — lower, -0.269
- ATAGTCGC — higher, -0.142
- ATGTGAGA — higher, 0.0561
- CGTGGCTC — lower, -0.17
- ATTACTCG — higher, 0.271
